# Structures can show the parent of a compound that is named as a salt. ± gives the standard deviation of the averaged measurements. Among all 1,000 compounds or so, about 15 (2%) showed an effect of 50% or more. This is one part of the list.
# System: HFF
# Test: uninfected host cell viability relative to vehicle control; higher = less host cell toxicity
# Details: 5 µM; 72 h; oxygen 21 %
# 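Further: confluent HFF monolayers, run in parallel with the Toxoplasma growth screen as a host toxicity counterscreen.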
row,Structure (SMILES),uninfected host cell viability
1,C[C@H](Cc1ccc(OCC(=O)O)cc1)NC[C@H](O)c1cccc(Cl)c1,92.2 ± 2.6%
2,CC(=O)N(C)c1cccc(-c2ccnc3c(C(=O)c4cccs4)cnn23)c1 [Indiplon],96 ± 5.5%
3,C=CCN1CC[C@]23c4c5ccc(O)c4O[C@H]2/C(=N/NC(=O)c2ccccc2)CC[C@@]3(O)[C@H]1C5 [Naloxone benzoylhydrazone],93.47 ± 0.71%
4,O=c1[nH]c2ccccc2n1CCCN1CCC(n2c(=O)[nH]c3cc(Cl)ccc32)CC1 [Domperidone],88.1 ± 2.1%
5,C1CCc2nnnn2CC1 [Pentylenetetrazole],96 ± 1.4%
6,"CN(C(=O)Cc1ccc(Cl)c(Cl)c1)[C@H](CN1CCCC1)c1ccccc1 [ICI-199,441 hydrochloride]",82.4 ± 1.6%
7,Cc1cccc(C(C)c2c[nH]cn2)c1C (centres undefined) [Medetomidine hydrochloride],92.1 ± 1.9%
8,C[N+](C)(C)CC#CCN1CCCC1=O [Oxotremorine M],83.6 ± 3.5%
9,COc1ccc(CNC(=O)/C=C/c2ccc3[nH]cc(CCN(C)C)c3c2)cc1,92.3 ± 0.25%
10,CC(N)Cc1c[nH]c2ccc(OCc3cccs3)cc12 (centres undefined) [BW 723C86 hydrochloride],79.4 ± 1.7%
11,CN1CCC(c2c[nH]c3ccc(O)cc23)CC1,82.8 ± 1.5%
12,CC(C)[C@@]1(NC(=O)[C@@H]2C[C@@H]3c4cccc5[nH]cc(c45)C[C@H]3N(C)C2)O[C@@]2(O)[C@@H]3CCCN3C(=O)[C@H](Cc3ccccc3)N2C1=O [Dihydroergocristine mesylate],90.5 ± 3.4%
13,CC(=O)C1=C(O)[C@@H]2[C@H]3c4c[nH]c5cccc(c45)C[C@H]3C(C)(C)N2C1=O [Cyclopiazonic Acid],85.67 ± 0.58%
14,O=Cc1cn(Cc2ccc(Cl)cc2)c2ccccc12 [Oncrasin 1],88.62 ± 0.5%
15,NCC(CS(=O)(=O)O)c1ccc(Cl)cc1 (centres undefined) [Saclofen],87.1 ± 2.1%
16,CC(C(=O)OC1CC2CCC(C1)N2C)c1ccc(Br)cc1 (centres undefined) [PG-9 maleate],89.1 ± 2.2%
17,Cc1[nH]c2ccc(O)cc2c1CCN [2-Methyl-5-hydroxytryptamine hydrochloride],83 ± 4.7%
18,Cc1ncc(CN2CC=C(c3ccccc3)CC2)c(N)n1,86.3 ± 3.6%
19,COc1ccc(C(=O)N2CCCC2=O)cc1 [Aniracetam],92.9 ± 0.94%
20,O=C1/C(=C/c2ccccc2)C[C@@]2(O)[C@H]3Cc4ccc(O)c5c4[C@@]2(CCN3CC2CC2)[C@H]1O5 [BNTX maleate],22.2 ± 1.1%

row,Structure (SMILES),uninfected host cell viability
1,Nc1ccncc1 [4-Aminopyridine],86.1 ± 1.4%
2,COc1ccc(-n2nc(C(F)(F)F)cc2-c2ccc(Cl)cc2)cc1,91.9 ± 2.3%
3,COc1cc2c(cc1O)C(CCc1ccc(Cl)cc1)N(C)CC2 (centres undefined),92.7 ± 3%
4,C[C@H]1CCC/C=C/[C@@H]2C[C@H](O)C[C@H]2[C@H](O)/C=C/C(=O)O1 [Brefeldin A],45.4 ± 4%
5,"C[N+]1(C)CCc2cc3c(cc2C1C1OC(=O)c2c1ccc1c2OCO1)OCO3 (single isomer, unassigned; (-)) [(-)-Bicuculline methobromide]",87.8 ± 4.6%
6,OC1CCCCC1N1CCC(c2ccccc2)CC1 (racemic) [(±)-Vesamicol hydrochloride],88.6 ± 1.9%
7,N.N.[Cl][Pt][Cl] [Cisplatin],92.8 ± 2.1%
8,Oc1ccc2c3c1O[C@H]1c4[nH]c5c(c4C[C@@]4(O)[C@@H](C2)N(CC2CC2)CC[C@]314)C[C@@]1(O)[C@H]2Cc3ccc(O)c4c3[C@@]1(CCN2CC1CC1)[C@H]5O4 [nor-Binaltorphimine dihydrochloride],85.23 ± 0.22%
9,c1cc(Cc2cnc[nH]2)ccn1 [Immethridine dihydrobromide],85.3 ± 3.4%
10,c1ccc2nc(N3CCNCC3)ccc2c1 [Quipazine dimaleate],88 ± 4.3%
11,O=C1NCN(c2ccccc2)C12CCN(CC1COc3ccccc3O1)CC2 (centres undefined) [Spiroxatrine],85 ± 1.8%
12,CN1C[C@H](C(=O)N[C@]2(C)O[C@@]3(O)[C@@H]4CCCN4C(=O)[C@H](Cc4ccccc4)N3C2=O)C[C@@H]2c3cccc4[nH]cc(c34)C[C@H]21 [Dihydroergotamine mesylate],89.48 ± 0.56%
13,O=C1NC(=O)c2c1c1c3ccccc3[nH]c1c1[nH]c3ccccc3c21 [Arcyriaflavin A],83.56 ± 0.33%
14,NC1(c2ccccc2Cl)CCCCC1=O (centres undefined) [Norketamine hydrochloride],97.41 ± 0.47%
15,CCCN(C/C=C/I)C1CCc2ccc(O)cc2C1 (centres undefined) [7-Hydroxy-PIPAT maleate],89.7 ± 1.6%
16,CC[N+](CC)(CCCNC1=CC(=O)C(NCCC[N+](CC)(CC)Cc2ccccc2)=CC1=O)Cc1ccccc1 [Benzoquinonium dibromide],93.7 ± 6%
17,CC[C@@]1(O)C(=O)OCc2c1cc1n(c2=O)Cc2cc3ccccc3nc2-1 [Camptothecin],71 ± 4.9%
18,CC(C)C[C@@H](N)C1(c2ccc(Cl)cc2)CCC1,91.72 ± 0.29%
19,CN1c2ccccc2C(NCCCCCCC(=O)O)c2ccc(Cl)cc2S1(=O)=O (centres undefined) [Tianeptine],94.4 ± 1.9%

# Reference: the supplement of paper PMC4894684
